To fix the notation:
B1: CPEB3 Ribozyme (parent)
chain: UAACAGGGGGCCACAGCAGAAGCGUUCACGUCGCAGCCCCUGUCAGAUUCUGGUGAAUCUGCGAAUUCUGCUGUAUAUCUC

This passage reports self-cleavage results from the RNAGym collection of RNA variant scans (doi:10.1093/nar/gkz1192).

Read counts are not given, so values of variants with three or more changes are uncertain.

Variants of B1 are the subject of the data set. Nature of the data set: self-cleavage, relative activity (ratio to wild type); higher = more cleavage; in vitro, sequencing. In a few lines: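 Barcoded CPEB3 ribozyme mutants, produced by rounds of error-prone PCR, self-cleaved while being transcribed with T7 RNA polymerase for 5 hours at 37°C and during a subsequent 15 min DNase I step before EDTA was added. Sequencing of template-switched cDNA on Illumina gave cleaved and total reads, and DNA sequencing assigned barcodes to variants. Each variant's relative activity is its cleaved/total read fraction divided by the unmutated ribozyme's fraction, averaged across three batches. A variant needed a minimum of 5 reads.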
Regarding UUACGGGGAGCCACAGCAGAGGCGUUCACGUCGCAGCCCCUGCCAGAUUCUGGUGAAUCUGCGAAUUCUGCUGUAUAUCUC [A2U A5G G9A A21G U43C], the self-cleavage stood at 0.09.
Take UUACUGGGGGCCACAGCAGAAGCGUUCACGUCGCAGCCCCAGUCAGACUCUGGUGAAUCUGCGAAUUCUGCUGCAUGUCUC [A2U A5U U41A U48C U74C A77G]: the self-cleavage was 0.07.
Take UUACAGGGGGCCUCAGCAGAAGCGUUCACGUCGCAGCCCCAGUCAGAUUCUGGUGAAUCUGCGAAUUCUGCUGUAUGUCUC [A2U A13U U41A A77G]: the self-cleavage was determined as 0.28.
As to UUACAGGGGGCCACAGCUGGGGCGUUCACGUCGCAGCCCCUGCCAGAUUCUGGUGAAUCUGCGAAUUCUGCUGUAUAUCUC [A2U A18U A20G A21G U43C], the self-cleavage was 0.09.
The result for UUACAGGGGGCCACGGCUGAAGCGCGCACGUCGCAGCCCCUGUCAGAUUCUGGUGAAUCUGCGAAUUCUGCUGUAUAACUC [A2U A15G A18U U25C U26G U78A] reads 0.06; that for UUACAGGGGGCCACAGCUGUAGCGUUCACGUCGCAGCCCCUGUCAGAUUCUGGUGAAUCUGCGAAUUCUGCUGUAUAUCUC [A2U A18U A20U], 0.15.
On to UUACAGGGGGCCGCAGCAGAAGCGUCCACGUCGCAGCCCCUGUCAGGUUCUGGUGAAUCUGCGAAUUCUGCUGUAUAUCUC [A2U A13G U26C A47G], for which the self-cleavage came to 0.27.
The result for UUACUGGGGGCCACAGCAGAAGCAUUCACGUCGCAGCCCCUGUCAGAUUCUGGUGAAUCUGCGAAUUCUGCUGUAUAUCUC [A2U A5U G24A] reads 0.51; that for UUGAAGGGGGCCACAGCCGAAGCGUUCACGUCGCAGCCCCUGUCAGAUUCUGGUGAAUCUGCGAAUCCUGCUGUAUAUCUC [A2U A3G C4A A18C U67C], 0.27.
For the variant UUGCAGGGGGCCACAGCUGAAGCGUUCACGUCGCUGCCCCUGUCAGAUUCUGGUGAAUCUGCGAAUUCUGCUGUAAACCUC [A2U A3G A18U A35U U76A U78C], the self-cleavage came out at 0.19.
In the case of UUACAGGGGGCCACUGCAGAAGCGUUCACGUCGCAGCCCCUGCCAGAUUCUGGUGAAUCUGCGAAUUCUGCUGUAUAUCUC [A2U A15U U43C], the self-cleavage worked out at 0.22.
With UUACAGGGGGCCACGGCAGAAGCGUCCACGUCGCAGCCCCUGUCAGAUUCUGGUGAGUCUGCGAAUUCUGCUGUAUAUCUC [A2U A15G U26C A57G], the self-cleavage amounted to 0.31.
As for UUACAGGGGGCCACGGCAGAAGCGUUCUCGUCGCUGCCCCUGUCUGAUUCUGGUGAAUCUGCGAAUUCUGCUGUAUAUCUC [A2U A15G A28U A35U A45U], the self-cleavage came to 0.22.
Turning to UUACUGGGGGCCACAGCAGAAGCGUUCACGUCGCAGCCCCUGUCAGAUUCUGGUGAAUCCGCGAAUUCUGCCGUAUAUCUC [A2U A5U U60C U72C], the self-cleavage worked out at 0.42.
As for UUACAGGGGGCCACAGCGGAAGCGUACACGUCGCAGCCCCUGUCGGAUUCUGGUGAAUCUGCGUAUUCUGCUGUAUAUAUC [A2U A18G U26A A45G A64U C79A], the self-cleavage amounted to 0.11.
With UUACGGGGGGCCACAGCAGAAGCGUUCACGUCGCAGCCCCUGUCAGACUCCGGUGAAUCUGCUAAUUCUGCUGUAUAUCUC [A2U A5G U48C U51C G63U], the self-cleavage stood at 0.23.
For UUACAGGGGGCCACUGCGGAAGCGUUCACGUCGCUGCCCCGGUCAGAUUCUGGUGAAUCUGCGAAAUCUGCUGUAUACCUC [A2U A15U A18G A35U U41G U66A U78C], the self-cleavage was 0.05.
Turning to UUACAGGGGGCCACUGCAGAAGCGUUCACGUCGCAGCCCCUGUCAGAUUCUGGUGAAUCUGCGCAUUCUGCUGUAUAUCCC [A2U A15U A64C U80C], the self-cleavage was 0.11.
As to UUACAGGGGGCCUCAGCAGAAGCGUACACGUCGCAGCCCCUGUCAGAUUCUGGUGAAUCUGCGAAUCCUGCUGUAUGUCUC [A2U A13U U26A U67C A77G], the self-cleavage came out at 0.23.
UUACAGGGGGCCACUGCAGAAGCGUUCACGUCGCAGCCCCUGUCAGAUUCUGGCGAAUCUGCGGAUCCUGCUGUACAUCUC [A2U A15U U54C A64G U67C U76C]: the self-cleavage came to 0.09.
Consider UUACAGGGGGCCGCAGCAGAGGCGUUCACGUCGCAGCCCCUGUCAGAUUCUGGUGAAUCUGCGAAUUCUGCCGUAUAUCUC [A2U A13G A21G U72C], for which the self-cleavage turned out to be 0.26.
Regarding UUACGGGGGGCCACGGCAGAAGCGUUUACGUCCCAGCCCCUGUCAGAUUCUGUUGAAUCUGCGAAUUCUGCUGUACAUCUC [A2U A5G A15G C27U G33C G53U U76C], the self-cleavage was determined as 0.26.
Regarding UUACAGGGGGCCACAGCCGUAGCGUUCACGUCGCAGCCCCCGUCAGAUUCUGGUGAAUCGGCGAAUUCUGCUGUAUAUCAC [A2U A18C A20U U41C U60G U80A], the self-cleavage stood at 0.04.
As to UUACAGGGGGCCUCAGCAGAAGCGUUCACGUCGCAGCCCCUGUCAGAUUCUGGUGAAUCUGCGAAUCCUGCUGUAUAUCUC [A2U A13U U67C], the self-cleavage worked out at 0.22.
As for UUGCAGGGGGCCACAGCAGAAGCGUUCACGUCGCAGCCCCUGUCUGAUUCUGAUGAAUCUGCGAAUUCUGCUGUAUAUCCC [A2U A3G A45U G53A U80C], the self-cleavage worked out at 0.88.
The result for UUUCAGGGGGCCGCAGCAGAAGCGUUCACGUCGCAGCCCCUGUCAGAUUCUGGUGAAUCUGCGAACUCUGCUGUAUAUCUC [A2U A3U A13G U66C] reads 0.29; that for UUACGGGGGGCCACAGCAGAAGCGUCCACGUCGCAGCCCCUGUCAGAUUCAGGUGAAUCUGCGAAUUCUGCUGUAUAUCUC [A2U A5G U26C U51A], 0.42; that for UUACGGGGGGCCACAGCAGAAGCGUUCACGUCGCAGCCCCCGUCAGAUUCUGGUGAAUCUGCGAAUUAUGCUGUAUAUCUC [A2U A5G U41C C68A], 0.16.
The same measure for UUACAGGGGGCCACGGCAUAAGCGUUUACGUCGCUGCCCCUGUCAGAUUCUGGUGAAUCUGCGAGUUCAGCUGUAUAUCUC [A2U A15G G19U C27U A35U A65G U69A]: 0.11; for UUUCAGAGGGCCACAGCAGAAGCGUUCACGUCGCAGCCCCUGUCAGAUUCUGGUGAAUCUGCGAAUUGUGCUGUAUAUCUC [A2U A3U G7A C68G]: 0.06.
Take UUGCAGGGGGCCACAGCAGAAGCGUUCACGUCGCAGCCCCUGUCAGAUUCUGGUGAAUCCGCGAACUCUGCAGUAUAUCUC [A2U A3G U60C U66C U72A]: the self-cleavage is 0.31.
As for UUACAGGGGGCCACAGCGGAAGCGUUCACGUCGCAGCCCCUGUCAGAUUCAGGUGAAUCUGCGAAUUCUGCUGUAUAUCUC [A2U A18G U51A], the self-cleavage was 0.5.
For UUACAGGGGGCCACGGCAGAAGCGUUCACGUCGCGGCCCCUGUCAGAUUCUGGUGAAUCUGCGAAUUCUGCAGUAUAUCUC [A2U A15G A35G U72A], the self-cleavage was found to be 0.57.
The result for UUACAGGGGGCCGCAGCAGAAGCGUUCACGUCGCAGCCCCUGUCAGAUUCUGGUGAAUCUGCGAAUUCUGCUGUAUAUACC [A2U A13G C79A U80C] reads 0.86.
